Our source for the activation values is PubChem BioAssay AID1346428 (National Center for Advancing Translational Sciences (NCATS), 2018).

Screen size: about 48,000 compounds; about 1,200 (2.5%) were called active. Not shown: some 2% with an inconclusive outcome.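 How the source made its calls: active means activation of at least 60% and not above a set upper limit (about 1 call in 100 departs from these limits); inconclusive means activation of 40% to 60%, or above that upper limit; inactive means activation under 40%.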 This is one part of the list.

Chain of UniProt O75388 (O75388 whole entry, looked up): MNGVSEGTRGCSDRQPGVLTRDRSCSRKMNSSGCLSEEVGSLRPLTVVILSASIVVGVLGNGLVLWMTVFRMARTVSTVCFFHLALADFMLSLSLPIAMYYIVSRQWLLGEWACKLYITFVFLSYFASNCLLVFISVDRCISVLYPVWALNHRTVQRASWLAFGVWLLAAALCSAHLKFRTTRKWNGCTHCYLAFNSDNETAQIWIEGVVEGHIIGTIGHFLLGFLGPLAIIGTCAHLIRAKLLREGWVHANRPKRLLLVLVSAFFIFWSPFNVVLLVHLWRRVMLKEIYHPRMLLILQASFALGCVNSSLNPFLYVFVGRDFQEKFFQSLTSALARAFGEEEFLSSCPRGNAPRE

In the assay the target is Probable G-protein coupled receptor 32 (Homo sapiens) (UniProt O75388). The experiment in a line: qHTS for Agonists of Human Resolvin D1 Receptor DRV1. Further: 0% is about no effect. The conditions noted are these: CHO-K1 GPR32 beta-arrestin PathHunter luminescence, 90 min; at 76.9 µM; stronger effect = higher value; zero percent set by DMSO-only wells. The method, boiled down:
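Readings come from a cell-based beta-arrestin complementation format: CHO-K1 GPR32 stable cells (2,500/well) treated 90 min with compounds, then beta-Gal substrate added for 1 h before chemiluminescence imaging.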
On the technique in general: qHTS replaces the single test concentration by a dilution series.
As for `CCCNC(=O)Cn1c(=O)cc(C)c2c(C)nn(-c3cccc(F)c3)c21`, the activation was inactive: 0.619%.

Turning to `COc1cc(Cl)c(C)cc1NC(=O)NC1COc2ccccc2C1` (centres undefined), the activation was inactive: -7.39%.

On to `CCc1ccc(-c2ccc3nnc(SCC(=O)Nc4cccc(C(C)=O)c4)n3n2)cc1`, for which the activation is inactive: 4.12%.

As to `COc1ccc(CCNC(=O)CN2C(=O)COc3ccccc32)cc1OC`, the activation was inactive: -9.92%.

Consider `COc1cccc(CNC(=O)c2ccc(CS(=O)c3ccccc3)o2)c1` (centres undefined), for which the activation is inactive: -9.8%.

Take `COc1ccc(NC(=O)c2oc3ccccc3c2NC(=O)c2cc(OC)c(OC)c(OC)c2)cc1`: the activation is inactive: -1.73%.

`COc1ccc(NC(=O)c2c(C)oc3ccc(O)c(CN4CCCC(C)C4)c23)cc1` (centres undefined): the activation is active: 61.2%.

For the compound `Cc1onc(-c2ccccc2)c1C(=O)Cl`, the activation was inactive: 24.5%.

Consider `COc1ccc(C2=C(N3CCN(c4cc(Cl)ccc4C)CC3)c3ccccc3C2=O)cc1`, for which the activation is inactive: 42.1%.

Consider `CCc1ccccc1NC(=O)C(CCSC)NS(=O)(=O)c1ccc2c(c1)oc(=O)n2C` (centres undefined), for which the activation is inactive: -24.6%.

As for `CCOC(=O)N1CCN(C(=O)c2cnn(-c3cccc(F)c3)c2-n2cccc2)CC1`, the activation was inactive: -2.43%.

Turning to `Cc1ccccc1-c1nn2c(=O)cc(CN3CCN(C(=O)c4ccccc4Br)CC3)nc2s1`, the activation was inactive: 1.56%.

Turning to `N#Cc1c(-c2ccccc2)cc(-c2ccccc2)nc1SCC(=O)Nc1ccc(Cl)cc1`, the activation was inactive: -14.5%.

In the case of `Cc1cccc(Oc2nc3c(c(=O)n(C)c(=O)n3C)n2C)c1C`, the activation is inactive: 3.85%.

Turning to `Oc1c(C(c2ccc(Cl)cc2)N2CCOCC2)sc2nc(-c3ccco3)nn12` (centres undefined), the activation is inactive: 3.94%.

As to `CC1CCN(S(=O)(=O)c2ccc3nc(N4CCN(c5ccccc5)CC4)ccc3c2)CC1`, the activation is inactive: -0.307%.

`Fc1cccc(CSc2nc(NCCc3ccccc3)c3ccccc3n2)c1`: the activation was inactive: -17.2%.

As to `COc1ccccc1OCC(=O)Nc1cc(-c2ccc(C)cc2)no1`, the activation was inactive: -0.849%.

In the case of `COc1cccc([C@H]2Nc3ccc(S(=O)(=O)Nc4cc(C)ccc4C)cc3[C@H]3C=CC[C@H]32)c1`, the activation was inactive: -37%.

In the case of `CC(=O)c1cc(-c2ccc(F)cc2)n(CC(=O)NCc2ccc(C)cc2)c1C`, the activation is inactive: -7.58%.

In the case of `COc1cc(NS(=O)(=O)c2cccs2)cc(OC)c1`, the activation is inactive: 14.3%.

On to `Cc1cc(C)c(OCC(=O)Nc2cccc(-c3nc4ncccc4o3)c2)c(Br)c1`, for which the activation is inactive: -5.7%.

Take `O=C(c1ccccc1Cl)N1CCN(CCc2ccccn2)CC1`: the activation is inactive: 12.3%.

As for `O=C(CSc1nc(-c2ccco2)nc2cc(=O)[nH]n12)Nc1ccccc1F`, the activation was inactive: -18.5%.
